Measured values from PubChem BioAssay AID493208 (National Center for Advancing Translational Sciences (NCATS), 2011).
Among all 44,000 compounds or so, about 340 (0.77%) were called active. Roughly 5% stayed inconclusive and do not appear here. Calls come from the whole dose curve; as a rule, active = well fitted inhibition curve with a large enough effect; inconclusive = small, poorly fitted or top-dose-only effect; inactive = flat fitted curve, though single readings scatter. The list shows a part of the results.

Assay: Acumen qHTS Assay for Inhibitors of the mTORC1 Signaling Pathway in MEF (Tsc2-/-, p53-/-) Cells: Sytravon;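 note: plate controls were DMSO for no effect and rapamycin for full effect; nearly all actives have a fitted effect of over 50% in size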
Settings: phospho-rpS6 immunofluorescence/PI, 24 h; series mostly up to 38.3 µM; activity change, negative = inhibition: at the top concentration
Outline: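 Immunofluorescence of rpS6 phosphorylation in Tsc2-/-, p53-/- MEFs after 24 h compound exposure, normalized to propidium iodide signal. Activity is expressed as % positive cells, thresholded with 7.5 nM rapamycin.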

Activity change, negative = inhibition, inactive:
CCCCOc1ccc(C2=NC(c3ccncc3)=Nc3ccc(Br)cc3N2)cc1 -1.82%
COc1ccc(OCC(=O)Nc2ccc(C(=O)OCc3cc(=O)n4nc(C)sc4n3)cc2)cc1 4.42%
CCOc1ccccc1N(CC)C(=O)Nc1cn(C)c(=O)c2ccccc12 0%
Cc1c(Cl)cccc1-n1ncc(C(=O)N2CCc3ccccc3C2)c1C1CCN(C(=O)OC(C)(C)C)CC1 -0.534%
Cc1ccc(/C=C/c2onc(C)c2S(=O)(=O)N2CCC(C(=O)N3CC(C)Oc4ccccc43)CC2)cc1 (configuration not stated) -1.95%
CCCCCn1c(=O)[nH]c2cc(C(=O)N3CCN(c4ccccc4)CC3)ccc2c1=O -4.55%
COc1ccc2c(c1)cc1c(=O)n(CC(=O)NC3CCCCC3)nc(C)n12 -2.12%
Cc1ccc(NC(=O)c2oc3ccccc3c2NC(=O)Cc2cccs2)cc1 4.63%
CCc1ccc(NC(=O)CC2C(=O)N(c3cccc(OC)c3)C(=O)N2Cc2ccco2)cc1 (configuration not stated) -7.91%
COc1ccccc1NC(=O)CCS(=O)(=O)c1ccc2nc(C)sc2c1 -10.7%
Cc1ccc(C(Nc2ccccn2)c2ccc3cccnc3c2O)cc1 (configuration not stated) -19.1%
COc1cc(Cl)c(NS(=O)(=O)c2ccc3c(c2)CC(C)N3C(=O)C2CCC2)c(OC)c1 (configuration not stated) -1.9%
CC(=O)N1CCC(N(C(=O)Nc2ccc(C)c(F)c2)C(C)C)CC1 -0.314%
CCc1c(C)sc2c1CCN(C(=O)Nc1ccccc1C(F)(F)F)C2c1ccccc1 (configuration not stated) 0%
Cc1ccccc1NC(=O)c1c(NC(=O)C(C)Oc2cccc(Cl)c2)sc2c1CCCC2 (configuration not stated) 6.13%
COc1cc(Cl)c(C)cc1NC(=O)CCc1c(C)nc2cc(-c3cccc(F)c3)nn2c1C 6.7%
O=C(CCn1cnc2onc(-c3ccc(F)cc3)c2c1=O)N1CCN(c2ccc(F)cc2)CC1 -13%
CCn1c(C(=O)N2CCCC(C(=O)NCCCOC)C2)cc2sccc21 (configuration not stated) -0.421%
COc1ccccc1CNC(=O)CC1N=C2c3ccccc3N=C(SCC(=O)Nc3ccc(F)cc3)N2C1=O (configuration not stated) -0.199%
COc1ccccc1Nc1nn2c(=O)c3ccc(C(=O)N4CCC(C)CC4)cc3nc2s1 -0.739%
COc1ccc(S(=O)(=O)Nc2cccc(-c3ccc(N4CCOCC4)nn3)c2)cc1F -7.93%
COc1cc(NC(=O)c2c(-c3ccc(C)cc3)nnc3ccccc23)cc(OC)c1OC -5.62%
Cc1oc2c(c1C(=O)Nc1cccc(Br)c1)C1=NCCN1C=N2 -5.2%
O=C(c1nc(-c2ccc(Cl)cc2)n2c1CCCCC2)N1CCN(c2ccccc2F)CC1 3.54%
CC(=O)c1ccc(N2C(=O)N(Cc3cccc(C(F)(F)F)c3)c3ccccc3S2(=O)=O)cc1 -6.73%
CC(=O)Nc1ccc(NC(=O)CCCc2nc(-c3ccc(C(C)(C)C)cc3)no2)cc1 -2.05%
CC1=C(C(=O)OC2CCCC2)C(c2ccc(F)cc2F)CC(=O)N1 (configuration not stated) 1.01%
Cc1ccc(CS(=O)(=O)c2cn(CC(=O)N(C)c3ccccc3)c3ccccc23)cc1 1.79%
Cc1nc2scc(C)n2c(=O)c1S(=O)(=O)NCc1ccccc1Cl -0.444%
CCOc1cc(C(=O)Nc2ccc3oc(-c4ccc(F)cc4Cl)nc3c2)cc(OCC)c1OCC -5.5%
Cc1ccc(NC(=O)c2cc(C)nn2-c2ccccc2)cc1 -6.55%
COc1ccc(N(Cc2cccs2)C(=O)c2ccccc2C)cc1 -11%
COc1cc(C2C(=O)N(C3CCCCC3)CC(=O)N2C2CCCC2)ccc1OC(C)C (configuration not stated) 1.4%
O=C(CSc1nc(-c2ccc(F)cc2)cc(C(F)(F)F)n1)NCc1ccccc1 -16.8%
CCCCNC(=O)CCC(=O)NNc1nc2ccccc2c2nc(-c3ccccc3)nn12 -11.3%
Cc1cccc(C(=O)Nc2c3c(nn2-c2ccc(Cl)cc2)CS(=O)(=O)C3)c1 -9.4%
O=[N+]([O-])c1cc(-c2nc(-c3ccccc3)no2)ccc1NCC1CCCO1 (configuration not stated) -0.582%
CCOC(=O)c1ccc2c(c1)N(Cc1cccc(OC)c1)C(=O)c1ccccc1S2(=O)=O 4.57%
CC1CCN(c2ccc(NC(=O)c3cccc(Cl)c3)cc2C(=O)O)CC1 -3.02%
Cc1ccc(-c2cc(C(=O)NC(C)c3ccccc3)c3ccccc3n2)cc1C (configuration not stated) 14.9%
CC(=O)Nc1ccccc1-c1nc2ccccc2n(CC(=O)c2ccc(C)c(C)c2)c1=O -28.3%
CCC(CC)C(=O)Nc1ccc(OCc2cc(=O)n3ccsc3n2)cc1 -5.07%
Cc1ccc2ncc(C(=O)NCc3ccccc3Cl)c(=O)n2c1 -0.978%
Cc1ccc(CCNC(=O)C2CCN(c3nnc(C)c4c(C)n(-c5ccccc5)nc34)CC2)cc1 -0.441%
COc1ccc(C)cc1NCc1nnc2n1CCCCC2 -12.2%
COc1ccc(NC(=O)CSc2nc3ncccc3[nH]2)c(OC)c1 -9.63%
Cn1c(=O)cc(OCC(=O)N2CCN(c3ccccc3)CC2)c2ccccc21 -2.13%
CCc1ccccc1NC(=O)c1ccc(F)c(S(=O)(=O)NC2CCCCCC2)c1 7.7%
Cc1ccc(NC(=O)CSCc2cnn(-c3ccccc3)c2-n2cccc2)c(C)c1 -5.56%
CCOc1cccc2sc(N(Cc3cccnc3)C(=O)C3CCCCC3)nc12 -6.25%
Cc1cccc(NC(=O)c2ccc(C(=O)Nc3cccc(C)c3C)cc2)c1C -0.454%
CN1CCN(C(c2ccccc2Cl)c2sc3nc(-c4ccco4)nn3c2O)CC1 (configuration not stated) -7.18%
CCC(=O)N1CCc2cc(Br)cc(S(=O)(=O)N3CCN(c4ccc(C(C)=O)cc4)CC3)c21 -0.89%
CCCCN(C)CCNC(=O)c1nn(-c2ccc(OC)c(Cl)c2)c(=O)c2c1c1ccccc1n2C -2.67%
Cc1nn(-c2ccccc2)c2sc(C(=O)Nc3ccc(Cl)cc3Cl)cc12 8.53%
COc1ccc(CNC(=O)Cn2c(=O)c3cccn3c3cccnc32)cc1 -7.62%
Cc1cccn2c(=O)c(C(=O)N3CCN(c4ccccc4F)CC3)cnc12 -6.51%
COc1ccc(C(=O)Nc2nnc(SCc3cc(=O)c4cc(C)ccc4[nH]3)s2)cc1OC -7.96%
COC(=O)C1=C(CS(=O)(=O)c2ccc(C)cc2C)NC(=O)NC1c1ccc(C)cc1 (configuration not stated) -11.2%
COc1ccc2c(C)c(CCC(=O)NCCc3ccccc3)c(=O)oc2c1 -0.358%
CCN(CC)c1ccc2cc(-c3nnc(Nc4ccc(C)cc4)s3)c(=O)oc2c1 -4.8%
Cc1cc(C)c(S(=O)(=O)NCc2ccc3c(c2)CCN3C(=O)c2ccccc2)c(C)c1 0%
COC(=O)c1ccc(NC(=O)c2c(NCc3cccc(F)c3)sc3c2CCCC3)cc1 -4.21%
Cc1cc2c(cc1S(=O)(=O)N(CCN(C)C)Cc1ccccc1)OCC(=O)N2 5.3%
CCC(Oc1ccccc1F)C(=O)Nc1cc(-c2ccccc2)no1 (configuration not stated) -2.46%
COc1ccccc1C(c1c(O)cc(C)n(Cc2ccco2)c1=O)N1CCCCC1 (configuration not stated) 4.01%
Cc1cccc(N2CCN(S(=O)(=O)c3cc(C(=O)Nc4ccc(Oc5ccccc5)cc4)ccc3F)CC2C)c1 (configuration not stated) -12.5%
CCOc1ccccc1NC(=O)CSc1c2c(nc3ccc(Cl)cc13)CCCC2 2.46%
COc1ccc(S(=O)(=O)N(CC(=O)NCCSc2ccc(C)cc2)c2ccc(C)cc2)cc1 3.12%
CCOC(=O)C1CCCN(S(=O)(=O)c2cc(-c3onc(C)c3C)ccc2OC)C1 (configuration not stated) -4.61%
CCc1c(-c2ccccc2)nc2ccccc2c1C(=O)NC(C)c1ccccc1 (configuration not stated) -3%
CC1CCc2onc(C(=O)Nc3ccc(Cl)cc3)c2C1 (configuration not stated) 2.55%
COc1ccc(-c2noc(CNC(=O)c3cc(OC)c(OC)c(OC)c3)n2)cc1 -4.22%
Cc1[nH]c2ccc(C(=O)NCCCN3CCCCC3)cc2c1C -5.11%
COc1cccc(-c2nc(-c3ccc(Br)o3)no2)c1 7.03%
CCCN(c1ccccc1F)S(=O)(=O)c1ccc2c(c1)C(C)(C)C(=O)N2C 0.867%
CC(=O)N1CCC(N(Cc2ccc(C)o2)C(=O)Nc2ccccc2F)CC1 -1.63%
Cc1nc2c(c(C)c1CCC(=O)NCc1ccc(F)cc1)c(=O)n(C)c(=O)n2C 2.96%
CCOc1ccccc1NC(=O)Cn1nnc(C(=O)NCc2cccs2)c1N -19.3%
CCOc1c(Br)cc(C2C=C(C(=O)O)Nc3ncnn32)cc1OC (configuration not stated) 2.27%
COc1ccc(NCc2cc3cc4c(cc3n(CC(=O)Nc3ccc(C)cc3C)c2=O)OCO4)cc1 0%
CC(=O)N1c2ccccc2C(=O)C1N1CCN(c2ccc(Cl)cc2)CC1 (configuration not stated) -6.19%
O=C(NCc1ccccc1)c1cc(Sc2cccc(Cl)c2)nc2ccccc12 -4.85%
CCOC(=O)c1cc(OC(=O)c2ccccc2F)n(-c2ccccc2)n1 -7.18%
Cc1ccc(-c2nc(S(=O)(=O)c3ccc(F)cc3)c(N3CCN(c4ccccc4)CC3)o2)cc1 0%
CC(C)C[C@H](N)c1nnc(SCc2ccc(Cl)cc2Cl)o1 -1.47%
Cc1ccccc1Nc1nn2c(=O)c3ccc(C(=O)NCC(C)c4ccccc4)cc3nc2s1 (configuration not stated) -9.99%
CC1=C(c2ccc(C(C)C)cc2)S(=O)(=O)N=C1N1CCN(c2ccccc2F)CC1 0%
CCOC(=O)c1ccc(NC(=O)c2c(NCc3sccc3C)sc3c2CCC(C)C3)cc1 (configuration not stated) -2.91%
NC(=O)c1nc(Nc2ccccc2)sc1NC(=O)c1c(F)cccc1F -19.5%
CCOCCCNC(=O)c1c[nH]c2ccc(S(=O)(=O)N(C)c3ccc(Cl)cc3F)cc2c1=O 6.57%
CN1CCN(C(CNC(=O)C(=O)Nc2ccc(Cl)cc2)c2cccnc2)CC1 (configuration not stated) -20.6%
Cc1ccc(C)c(N2CCN(C(=O)CCc3nnc4n(C)c(=O)c5ccccc5n34)CC2)c1 -7.37%
CCOC(=O)c1cccnc1SCC(=O)N(CC)c1cccc(C)c1 13.6%
CC(C)(C)c1ccc(OCC(=O)Nc2ccc(C(=O)OC3CCCCC3)cc2)cc1 -5.28%
COc1ccc(F)cc1S(=O)(=O)NCC(c1ccco1)S(=O)(=O)c1cccs1 (configuration not stated) -11.8%
CC(C)Cn1nc(NC(=O)c2cccc(Cl)c2)c2cc3ccccc3nc21 2.25%
